Measured values published in the supplement of paper PMC11417369.
The list shows a part of the results.

system: PfSIP2 AP2 domain 1 (GST-tagged); test: gcPBM binding intensity (ln(normalized median fluorescence intensity)); higher = stronger DNA binding
Summary of the method: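 Binding intensity is defined as the maximum Masliner-normalised natural-log median intensity across replicate spots for either probe orientation. It was measured on an Agilent 4 × 180k array of primer-extended double-stranded 36-bp intergenic genomic probes and negative controls, to which GST-tagged P. falciparum DNA-binding domains made in E. coli were applied for 1 h in 1× PBS with 1% milk, 0.2 mg/ml BSA, 0.5% salmon testes DNA and 0.03% Triton X-100. Detection was by Alexa488 anti-GST antibody and scanning at 488 nm.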

Sequence	gcPBM binding intensity (ln)
TATATTTAGTAAAAAGGTACCATTCTTATTTATATT [CACACA_negctrl_site1165]	6.8
TACTGTGATAGCACCACACACGCAAAAGTGAGTATA [CACACA_site1109]	7.95
TTTCAGCCAAACGATAAACTACGACACTTGAACGAA [CACACA_negctrl_site1747]	6.77
ATATATTTTTTTTCTTCACACACATGAATTATATAT [CACACA_site9053]	7.45
ATATATATATATATATGTACATATTATATATGAACG [XGTACX_site1585]	9.83
AATAATAGAAAAAGGTGTACTTATAAACATATACAC [XGTACX_site6921]	6.95
GTAATTATTATTAATAGTACACACTATGGCATTTCA [XGTACX_site5192]	6.91
ATTTTTTTTTTTATGTGTACATATATTTTTTTAATT [XGTACX_site7921]	7.02
AAGAAAAAATAAACATGTACATAAATATATATATAT [XGTACX_site304]	9.59
ATTTAATTTATAAAAACACACACAGGTAAAAAGGTG [CACACA_site8306]	7.83
TAAGGCCCTTTTCATCGTACAGTAAAATATAAATAA [XGTACX_site1278]	6.94
CATACTGTGATAGCACCACACACGCAAAAGAGGGTA [CACACA_site8285]	8.08
CAAATACATGTGTAAAGTACATATTAATAAGTCTTT [XGTACX_site6342]	6.91
GAAAATTCTTAAGGCACACACATATATAATATATAC [CACACA_site569]	6.95
AATTTAACCCATTTTATAATTATTACCACTATATAT [TGCATGCA_negctrl_site452]	7.1
TCATTATATACAATATGTACATATATGTAATAAACA [XGTACX_site4611]	7.18
AGAAAGAAAGAATACACACACACATATATATATATC [CACACA_site3744]	7.18
AAAGAATTCATTATTTGTACTTAAATAAATAAATAA [XGTACX_site5932]	6.86
AAAGGATATGCTTCATATATATATTGTTATATATGT [CACACA_negctrl_site1672]	6.88
AGCACACGCAGACACACACACACACGCACACGCACA [CACACA_site6306]	8.43
ATAACACAAAAAGGGGGTACAATAAAAAAAAAAAAA [XGTACX_site1652]	8.46
AATACCTATAATACAACACACAAGTAATATAAACCT [CACACA_site7661]	7.03

Sequence	gcPBM binding intensity (ln)
TATTTATATAGGTATACACACATACAAATATGTAAA [CACACA_site7705]	6.89
TAAAATTTTTTATTCACACAAATATAGTTATATATA [CACACA_site5348]	6.86
AAATTAATATAAATATGTACATAAATAATAAAATAT [XGTACX_site6131]	7.36
ATTTTTCAAACTTTAGTGCAATGAAAGAAAGAAAAA	7.75
GGAGGTTGTTATAAAAGTACAAAAAGTTGCAATTTT [XGTACX_site7351]	7.11
GTTTTCCTTCCCTTTCCCCCTCAAAAAAAGGGAACA [TGCATGCA_negctrl_site436]	8.88
AAGGAATAAAGAAGTTGTACATAATTTGTATCATCC [XGTACX_site3891]	7.16
AAAAAAAAAAAAACTTGTACATGTGATATTATCTAT [XGTACX_site6169]	6.86
ATTTAATACATACATTCACACACACTAATTGTATAT [CACACA_site9361]	7.01
TTAAATGTTCTATATACATGCAATGATATGTTTCTG [TGCATGCA_site317]	6.78
TCAAAGTAGGCTTATATGCACACTTTGAAATATTAT [CACACA_site1920]	7.31
TTTAAAATAAATATTACACACAAAATATTAAAAAGC [CACACA_site2129]	7.35
ATATATACATATGGGTGTACATATGCACATATATAT [XGTACX_site8437]	7.5
ACAAAAAAAAACGTGGTGCATTAATAATATTGTATA [GTGCAC_site9469]	10.3
TAGTTAATATGAAAAAGTACACGTTTCAGTGAAAGT [XGTACX_site7402]	6.97
TGCTCTAATTTATATACACACAAATATGTACACATA [CACACA_site7845]	7.32
TTTCATAAATAATAAAATAAAATATGAAGCAAAAGG [CACACA_negctrl_site1767]	7.29
TAATTTTTTTAAGAGAGTACATGACTCAACAGTTTA [XGTACX_site3103]	6.69
TTATATCCAACTTGAAAAAAGGTATATGTTTATATA [CACACA_negctrl_site1746]	6.62
TTTTTTTTTTTTTGGAGTACATGTTTATAACATAAT [XGTACX_site1799]	7.02
GATAATACATAAATTTATAAGTGGAAGAATAAATAA [CACACA_negctrl_site698]	7.06
GAAATATTACAAAGTACATGCAACGAAAATTTCAGT [TGCATGCA_site608]	6.96

Sequence	gcPBM binding intensity (ln)
ACAAACAAATAAATATGTACGAATAAATAAAATTTT [XGTACX_site4664]	6.94
TTTTTTTTCAAAAATACAAAAAAAAAAGAAAAAAAC [CACACA_negctrl_site625]	7.19
CTTTTAGAATAATCAGTGCAAAAAAAAAAAAAAAAA	8.42
TTATTCTAAAAATATACACACAACAACAAACAAACA [CACACA_site1543]	7.42
ATGTGTTTCTTCAATTGTACTAAAAGGTATATATTG [XGTACX_site4608]	7.23
TAGTAACTTGTATTCACACAAATTATATTATATTAC [CACACA_site5041]	7.02
TATATAATATATAAATGTACTTTTGTCTTATATGAA [XGTACX_site7211]	7.07
ATTATTTAAATTTAACGTACGGAATAAGACATAGAT [XGTACX_site8622]	7.6
ATACTATAATATAAAACACACATATGTACCTTCTAA [CACACA_site7323]	7
TTCAGGTAATAACATTGTACATGTGTATCATAATTA [XGTACX_site6740]	6.88
TTTTTTTTTTTTTTTTTTTTACAGAAAAATATTAAA [CACACA_negctrl_site128]	6.8
AATCATTAAAGCATAATGTTTATGATCAATATGAAA [CACACA_negctrl_site887]	6.64
TACACCCACATATATATACACACTTTTATTTAAATA [CACACA_site1596]	7.34
AAAAAAAATAATGTTGCACACAACAACAAACAAAAA [CACACA_site3290]	7.19
AATATATATATATGTGCACACATATATAATATGTAT [CACACA_site716]	8.55
CAATATGGAAAATAAAGTACGCACACAAAAATTCTC [XGTACX_site4793]	7.37
TAGATAAAATGAACATGTACTCATCTTAATATATAT [XGTACX_site34]	7.07
GGCATGACTATCTGCACACATAAAAATAAGAAATAC [CACACA_site841]	7.56
GATTTATACAAATATGTACACACTAATTATATATTA [CACACA_site8045]	7.33
ATAAACAGAAAAAAAAAAAAAAAAAAAAAAAAAAAA [CACACA_negctrl_site143]	6.98
TTTTTTTTCTCACAAAAAATAATTAACAAAAAGGAA [XGTACX_negctrl_site154]	7.21
ATAAAAAAAAAAAATACACACATATATTTATTTATA [CACACA_site6903]	6.97

Sequence	gcPBM binding intensity (ln)
TTTATATGGATTTTTTTTTAATATTTCTTTTAATTT [TGCATGCA_negctrl_site361]	6.68
TAAAAAAAAAAAAAAAGTACAAAAAAAATATTTTTT [XGTACX_site7941]	6.74
ATATGCTATTTACTAGTGCAAAATATTTAAAATATG [GTGCAC_site9517]	8.53
GTTGCACAATGTTACACACACAATATAGATCGTTAA [CACACA_site6717]	7.47
TTAATATAAGCAAATACACACACACCGATATATATA [CACACA_site9269]	7.3
AACAGACAAAGACACACACACATACATACATACATA [CACACA_site6351]	7.25
TATCATATTTTTATATGTACATAACATAAAAAAAAA [XGTACX_site2152]	7.26
TGATTTGTGCCGATTTGTACACATTTATATATATAT [XGTACX_site2154]	8.76
TACATACATACATACACACACATATATATATATATA [CACACA_site1944]	9.86
ATTTTTTCATATTCTACACACGTGAACAAATGAGTC [CACACA_site5635]	7.21
CAATGTTAACATATTACACACATATGTATATATAAT [CACACA_site8878]	6.91
GACAACTCTTTTCATACACACAAAAAAAAAAAAATA [CACACA_site2361]	7.34
TCACATATATATTAATGTACATATATTTTTTATGTA [XGTACX_site5125]	7.01
GATATATCCTATGTTATTTTTATGGTGTAATTTAGT [XGTACX_negctrl_site112]	7.05
AGAAAGAAAATATATACACACAAAAAAAAATATATA [CACACA_site1412]	6.94
TTTTTTTTATGTATCACACATAATTTTTTATTATGA [CACACA_site5534]	6.79
ATAATAACAAGGCGCTGTACTGTACCGTTTTTCATA [XGTACX_site6135]	6.78
CATCCACAAATATGTACACACATATATAAATATGTA [CACACA_site7407]	7.28
ATTATTAATAATTGTGTGCACAAATATTTATATGCT	8.19
ATATCAATATAAAGTACACACTATAGTATGTATTAT [CACACA_site5286]	7
ATATTGTATTATCTTTATGTACCAAAAAAAAAAAAA [CACACA_negctrl_site1036]	7.09
ATGAACATACAATATACACACATATAGATTTATATT [CACACA_site6524]	7.02
